Laboratory results reported in PMC4336329 (PLoS ONE, 2015).
About 2,200 (0.71%) of roughly 310,000 compounds showed an effect of 50% or more. The effect is printed as a negative number. Some of the results follow.

These compounds were tested against human ether-à-go-go-related gene (hERG) potassium channel (human, UniProt Q12809) (assay: primary screen, population patch clamp on CHO cells stably expressing hERG).
Chain of human ether-à-go-go-related gene (hERG) potassium channel (Q12809 whole entry, looked up): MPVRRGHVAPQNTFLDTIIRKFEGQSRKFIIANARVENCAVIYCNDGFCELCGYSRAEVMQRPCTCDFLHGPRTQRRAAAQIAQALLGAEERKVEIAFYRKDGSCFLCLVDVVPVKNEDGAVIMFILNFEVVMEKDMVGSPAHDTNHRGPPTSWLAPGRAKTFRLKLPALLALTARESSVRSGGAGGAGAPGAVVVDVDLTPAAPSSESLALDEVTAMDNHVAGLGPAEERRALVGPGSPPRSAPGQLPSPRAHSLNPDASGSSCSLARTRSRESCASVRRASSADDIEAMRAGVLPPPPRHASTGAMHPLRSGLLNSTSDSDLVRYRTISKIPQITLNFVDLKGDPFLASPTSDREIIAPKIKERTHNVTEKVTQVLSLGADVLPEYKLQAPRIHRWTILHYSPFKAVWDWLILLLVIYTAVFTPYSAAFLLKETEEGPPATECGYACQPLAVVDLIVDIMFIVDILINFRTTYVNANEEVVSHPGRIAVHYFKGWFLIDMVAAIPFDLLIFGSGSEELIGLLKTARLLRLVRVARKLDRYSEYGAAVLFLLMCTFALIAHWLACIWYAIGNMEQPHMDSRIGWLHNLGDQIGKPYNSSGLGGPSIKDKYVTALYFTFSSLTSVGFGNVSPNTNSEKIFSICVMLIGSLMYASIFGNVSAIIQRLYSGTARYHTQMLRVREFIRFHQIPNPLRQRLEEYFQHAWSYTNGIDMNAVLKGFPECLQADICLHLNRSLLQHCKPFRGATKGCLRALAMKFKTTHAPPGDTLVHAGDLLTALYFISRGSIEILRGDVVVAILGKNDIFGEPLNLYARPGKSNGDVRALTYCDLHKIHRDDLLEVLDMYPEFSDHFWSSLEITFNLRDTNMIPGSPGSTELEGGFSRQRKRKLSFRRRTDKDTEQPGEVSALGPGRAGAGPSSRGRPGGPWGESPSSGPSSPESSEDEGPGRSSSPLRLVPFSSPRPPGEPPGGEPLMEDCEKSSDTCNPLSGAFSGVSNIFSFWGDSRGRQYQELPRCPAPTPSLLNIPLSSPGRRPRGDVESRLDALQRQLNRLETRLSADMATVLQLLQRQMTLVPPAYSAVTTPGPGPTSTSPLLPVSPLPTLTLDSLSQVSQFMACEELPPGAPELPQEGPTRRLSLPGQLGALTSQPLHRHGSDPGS

Going from `Cc1oc(-c2ccc(Cl)cc2)nc1CS(=O)CC(=O)NCCN1CCCC1` (centres unmarked) to `CCN(CC)CCCNC(=O)CN1N=C(c2ccc(OC)cc2)CCC1=O`, the “hERG current change (%, negative = inhibition) at 1uM” value rises from 7.33% to 12.5%.

Compared with `CCN(CCCNC(=O)Cn1cc2c(n1)CCCC2)c1cccc(C)c1`, `Cc1ccc(NC(=O)C2=C(C(=O)O)CCCC2)cc1Br` is higher in “hERG current change (%, negative = inhibition) at 1uM” value: 7.33% for the first, 15.6% for the second.

First: COc1cccc2cc(-c3nnc(SCC(=O)Nc4nc(C)cs4)n3C)oc12
Second: Cc1ccc(-c2nc(SCC(=O)Nc3ccccc3OC(F)F)c3c(C)c(C(=O)O)sc3n2)cc1
The “hERG current change (%, negative = inhibition) at 1uM” value of the first is higher: 9.62% for the first, 7.59% for the second.

First: O=C(c1ccccc1)N1CCCC(C(=O)N2CCCCC2)C1 (centres unmarked)
Second: O=C1CCCCN1CCC(=O)N1CCCC(N2CCN(c3ccccc3)CC2)C1 (centres unmarked)
The “hERG current change (%, negative = inhibition) at 1uM” value of the first is higher: 13.7% for the first, -3.37% for the second.

First: Cc1cccc(NC(=O)c2cc[n+]([O-])cc2)c1C
Second: Cc1cccc(/C=C/C(=O)c2ccc([N+](=O)[O-])o2)c1
The “hERG current change (%, negative = inhibition) at 1uM” value of the first is higher: 9.08% for the first, 8.53% for the second.

First: CCOCCCNC(=O)c1oc2ccc3c(c2c1C)C(O)CC(C)(C)O3 (centres unmarked)
Second: CCN(CC)S(=O)(=O)c1cccc(C(=O)N/N=C/c2ccc([N+](=O)[O-])o2)c1
The “hERG current change (%, negative = inhibition) at 1uM” value of the first is higher: 14.4% for the first, 4.1% for the second.

First: Oc1cccc(-c2nc3c4c(ncn3n2)-c2ccccc2CC42CCCC2)c1
Second: CCC1(c2ccc(-c3ccccc3)cc2)C(=O)NC(=O)NC1=O
The “hERG current change (%, negative = inhibition) at 1uM” value of the first is lower: -12.1% for the first, 11.9% for the second.

Going from `CCOc1cc2[nH]c(=O)n(CCCC(=O)N(C)Cc3ccccc3)c(=O)c2cc1OCC` to `CCOC(=O)C1=C(C)N=C2SC(C)C(=O)N2C1c1ccc(OCC)c(OCC)c1` (centres unmarked), the “hERG current change (%, negative = inhibition) at 1uM” value rises from 1.42% to 15.8%.

First: O=C(N=C1SCC(=O)N1c1ccccc1)c1ccco1
Second: Cl.NC(=O)C1CCN(C(c2ccccc2F)c2nnnn2Cc2ccco2)CC1 (centres unmarked)
The “hERG current change (%, negative = inhibition) at 1uM” value of the first is lower: -1.23% for the first, 11.9% for the second.

Going from `O=C(O)C1=C(C(=O)Nc2cc(C(F)(F)F)ccc2Cl)CCCC1` to `O=C(NCc1ncc(C(F)(F)F)cc1Cl)Nc1ccccc1`, the “hERG current change (%, negative = inhibition) at 1uM” value falls from 15.7% to 14.6%.

Going from `COc1ccccc1/C=C(/C(=O)OCC(=O)Nc1ccccc1C)c1ccccc1` to `COc1ccccc1CCC(=O)OCC(=O)Nc1ccc(S(N)(=O)=O)cc1`, the “hERG current change (%, negative = inhibition) at 1uM” value rises from 7.02% to 8.23%.

Going from `O=C(CSc1ccccn1)Nc1ccc2c(c1)OCO2` to `COc1ccc(C(=O)NCc2ccccn2)cc1[N+](=O)[O-]`, the “hERG current change (%, negative = inhibition) at 1uM” value falls from 12.3% to 5.37%.

First: CCC1CCCCN1C(=O)c1ccc(OC2CCN(Cc3ccccn3)CC2)cc1 (centres unmarked)
Second: Cc1ccc(NC(=O)CN2CCC(NC(=O)C3CCCCC3)CC2)c(Br)c1
The “hERG current change (%, negative = inhibition) at 1uM” value of the first is lower: 14.3% for the first, 16.1% for the second.

First: NC(=O)C1CCN(C(=O)CN2CCCc3ccccc32)CC1
Second: Cc1ccc(S(=O)(=O)NCC(=O)N2CCCCC2)cc1
The “hERG current change (%, negative = inhibition) at 1uM” value of the first is higher: 18.6% for the first, 8.11% for the second.

Going from `O=C(Nc1ccc(Cl)cc1)c1ccsn1` to `NC(=O)c1ccc(Nc2ccc([N+](=O)[O-])cc2[N+](=O)[O-])cc1`, the “hERG current change (%, negative = inhibition) at 1uM” value falls from 13.8% to -0.833%.

Compared with `O=C(NCCCO)NC12CC3CC(CC(C3)C1)C2`, `O=C(NCCc1ccccc1)NC1CCCCC1` is higher in “hERG current change (%, negative = inhibition) at 1uM” value: 0.0711% for the first, 19.2% for the second.

Going from `CCN1C(=S)N[C@@H](CCc2ccccc2)[C@H](C(=O)OC)[C@H]1C` to `CCN(CC(=O)NCCc1ccccc1)S(=O)(=O)c1ccccc1`, the “hERG current change (%, negative = inhibition) at 1uM” value falls from 11.6% to 7.82%.

First: Cc1n[nH]c(=S)n(NC(=O)CC(=O)Nn2c(=S)[nH]nc(C)c2=O)c1=O
Second: CCOC(=O)CN1C(=O)C(=O)N(Cc2ccccc2F)C1=O
The “hERG current change (%, negative = inhibition) at 1uM” value of the first is higher: 28.9% for the first, 12.2% for the second.

First: CCCNC(=O)NC(=O)c1cnccc1C(F)(F)F
Second: COc1ccc(C(=O)NC(=S)NCCO)cc1Br
The “hERG current change (%, negative = inhibition) at 1uM” value of the first is higher: 16.9% for the first, -0.56% for the second.

Compared with `CCN(CC)S(=O)(=O)c1cccc(C(=O)OCC(=O)c2ccc3c(c2)NC(=O)CO3)c1`, `Cc1ccc(C)c(N2CCN(C(=O)CCNS(=O)(=O)c3ccc4c(c3)oc(=O)n4C)CC2)c1` is higher in “hERG current change (%, negative = inhibition) at 1uM” value: 5.12% for the first, 6.2% for the second.

Compared with `CSc1sc(C(=O)Nc2ccc(F)cc2F)c2c1C=CCC2`, `Cc1onc(-c2c(F)cccc2Cl)c1C(=O)OCC(=O)NC1CC1` is lower in “hERG current change (%, negative = inhibition) at 1uM” value: 11.8% for the first, 11% for the second.

Compared with `Cc1ccc(-n2cc(CNCCCn3cccn3)c(-c3cccc(C)c3)n2)cc1`, `Cn1cc(S(=O)(=O)Nc2cccc3ccccc23)c(=O)n(C)c1=O` is higher in “hERG current change (%, negative = inhibition) at 1uM” value: -27.1% for the first, -13.9% for the second.

Going from `CCNC(=S)NNC(=O)c1csc(CC)c1` to `CCN(CC)P(=O)(c1ccccc1)c1c(C)nc2ccccn12` (centres unmarked), the “hERG current change (%, negative = inhibition) at 1uM” value rises from 5.75% to 9.7%.

Going from `CNCCc1ccc(OC)c(OC)c1` to `COc1ccc2c(c1OC)CCC2=O`, the “hERG current change (%, negative = inhibition) at 1uM” value falls from 16.3% to -12.1%.

Going from `O=C(N/N=C/c1cc([N+](=O)[O-])ccc1O)/C(=C\c1cccs1)NC(=O)c1ccccc1` to `NS(=O)(=O)c1ccc(CNC(=O)NC2(c3ccccc3)CC2)cc1`, the “hERG current change (%, negative = inhibition) at 1uM” value rises from -11.6% to 10.7%.

Going from `C=Cn1cc[n+](CC(=O)c2ccc(Br)s2)c1.[Br-]` to `O=C(CN1CCOCC1)N/N=C/c1ccc(-c2ccc(Br)cc2)o1`, the “hERG current change (%, negative = inhibition) at 1uM” value falls from 15.3% to -13.2%.

Compared with `Cc1ccc(Cl)cc1NS(=O)(=O)c1cn(C)nc1C`, `O=S(=O)(c1cc(Cl)ccc1Cl)N1CCC2(CC1)OCCO2` is higher in “hERG current change (%, negative = inhibition) at 1uM” value: 9.38% for the first, 9.85% for the second.

First: COc1ccc(N2CCN(C(CNC(=O)C(=O)NCc3ccc4c(c3)OCO4)c3ccco3)CC2)cc1 (centres unmarked)
Second: Cc1noc(C)c1CN1C(=O)NC2(CCCCCCC2)C1=O
The “hERG current change (%, negative = inhibition) at 1uM” value of the first is lower: 4.42% for the first, 6.38% for the second.

First: CC1CC2(CCCC2)Nc2ccc(F)cc21.Cl (centres unmarked)
Second: Cc1ccc(N/C(N)=N/c2nc(C(F)(F)F)cc(C(F)(F)F)n2)cc1
The “hERG current change (%, negative = inhibition) at 1uM” value of the first is higher: 16.7% for the first, 9.94% for the second.

For `CCCN1CCC(NC(=O)C2CCCCC2C(=O)O)CC1` (centres unmarked), the “hERG current change (%, negative = inhibition) at 1uM” value was 13.7%.
